From article PMC12136788
Some of the results follow.

B1: chr13:35475095:35475222:-|CDS|ENSG00000180660|unk|FALSE|unique (ssRNA)
RNA: GGGAGUUCUACAGUCCGACGAUCGCUGCAACUUAUCUCCUGCCUGCAGUGCCGGCGGUGUCCCCACUACUUUCUACCGAACUUAGAUCUGUUUCAAGGCAAACCUCACUCAGCUCUGGAAAACGCUGCCAAACAAACGUGGCGCAACAGAGGAUUGAGCAUCA
B2: chr21:29063390:29063550:-|CDS|ENSG00000156261|unk|total|mutant (ssRNA)
RNA: GGGAGUUCUACAGUCCGACGAUCGUUUACUUGUUUUGCCAGGGAACAGUGUUGAUAAAGACUGCUGAAGAAUUGAUGAAUUUCCGUAAGGGAGAAGAAAACCUCAUGGAUGCACAAGUCAAAGCUAUUGCUGAUACUGGUGCACAACAGAGGAUUGAGCAUCA
B3: ENSG00000107863:be:win_1201|CDS|ENSG00000107863|bound_else_gene|NA|bound_elsewhere_windowed (ssRNA)
RNA: GGGAGUUCUACAGUCCGACGAUCUUGCACAUAGGUUGUCGGACAAUACAAGAAAGAUUAGAUAGUUUAAGAGCAGCAUCUCAAAGCACGACAGAUUAUAACCAGGUCGUCCCCAACCGCACUACUUUGCAGGGACGACGUCGACAACAGAGGAUUGAGCAUCA
B4: chrX:74591538:74591767:-|CDS|ENSG00000131263|unk|total|mutant (ssRNA)
RNA: GGGAGUUCUACAGUCCGACGAUCUUGCCCUUCCUCCGCCUGGCUCAGUUUUUCCUCUUAAAUGAGGAUGAUGAUGACCAACCCCGAGGACUCACCAAAGAACAGAUUGACAACUUGGCAAUGAGAAGUUUUGGUGAAAAUGAUCAACAGAGGAUUGAGCAUCA
B5: ENSG00000162063:stop:overlap|stop_codon|ENSG00000162063|stop_codon|NA|stop_codon (ssRNA)
RNA: GGGAGUUCUACAGUCCGACGAUCUGCGGCACUGCACCAAGGAGCCCCCGAGCGCUGAGAGCCCACACCCCGUCCCGGCUGUCUAGGUCCCCACUGUGGUGGAUUACAAGGAGGUCCUGCUGACGCUAGUCCCUGUGGAGCUGACAACAGAGGAUUGAGCAUCA
B6: chr12:106239179:106239280:-|CDS|ENSG00000136026|msi1|total|mutant (ssRNA)
RNA: GGGAGUUCUACAGUCCGACGAUCGGACCAAGCCCAGGCCGCCCGUCUGCCUCCUCAGGACUUCCUGGACAGACUUUCUUCUCCCGACAACCUGAAAGCCUCAGUCAGCCAAGUGGAGGCGGACUUGAAAAUGCUCAGGACUGCCAACAGAGGAUUGAGCAUCA

biological target: MSI1 full-length (mouse, UniProt Q61474 1-362); test: nsRBNS (natural sequence RNA bind-n-seq); RBNS binding buffer (assumed for nsRBNS): 25 mM Tris pH 7.5, 150 mM KCl, 3 mM MgCl2, 0.01% Triton X-100, 500 ug/ml BSA, 20 U/ml SUPERase-In, 4 C; UNK is unkempt and MSI1 is Musashi-1; names of the RNAs are library labels; protein concentration not given here; high values mean tight binding
UniProt Q61474, sequence (Q61474 whole entry): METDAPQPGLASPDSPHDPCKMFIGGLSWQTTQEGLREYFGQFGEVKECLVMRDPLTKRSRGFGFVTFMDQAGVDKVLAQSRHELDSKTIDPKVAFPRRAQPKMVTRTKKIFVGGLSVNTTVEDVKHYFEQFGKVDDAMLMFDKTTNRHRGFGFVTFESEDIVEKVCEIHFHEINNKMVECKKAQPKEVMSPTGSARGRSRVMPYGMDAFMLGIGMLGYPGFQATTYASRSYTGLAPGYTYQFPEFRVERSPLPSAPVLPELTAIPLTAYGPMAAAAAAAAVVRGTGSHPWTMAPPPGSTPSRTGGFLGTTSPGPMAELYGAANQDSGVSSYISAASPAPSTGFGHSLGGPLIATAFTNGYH

| Binder | binding signal |
| --- | --- |
| B1 | 0.544 enrichment R |
| B2 | 0.303 enrichment R |
| B3 | 15.3 enrichment R |
| B4 | 0.286 enrichment R |
| B5 | 2.85 enrichment R |
| B6 | 0.541 enrichment R |
